Data on one compound can be found in patent publication US20230301999A1, “METHODS OF TREATING GOUT” (Horizon Therapeutics USA, Inc., priority 2020, published 2023).

The test system of series [1] is adult patients with uncontrolled gout. The settings on record: 4 weeks.
For series [2] the test system is unchanged. The series can be described thus: Open-label study: gout flares (adverse events of special interest). The settings on record: for Subjects with gout flares, %: Methotrexate Run-in Period. Format: in vivo, human. The text has this:
As used herein, a “gout flare” refers to a manifestation of physiological or biochemical symptoms of gout, which is a possible side effect or AE associated with treatment with KXX. A gout flare may produce burning itching, tingling, or stiffness in the joints, particularly the peripheral joints. An individual may also experience redness, swelling, and pain in the joints. […] For such individuals, medications to help reduce flares may be taken regularly for the first few months after KXX is started.
Participants were instructed to contact the site within 12 hours of the onset of symptoms. Gout flares were confirmed through questioning or direct observation.

For series [3] the test system is unchanged. The series can be described thus: Open-label study of pegloticase with MTX: serum uric acid observed values and change from baseline. It counts as in vivo, human. The settings on record: mITT. The text has this:
KXX treatment typically is monitored using regular determination of the patient's SUA levels. A reduction in the serum uric acid level relative to the SUA in the patient before KXX treatment may generally be indicative of successful treatment with KXX, alone, or co-administered with an immunosuppressive agent or therapy, such as MTX, as described herein. Collection and measurement of a patient's serum uric acid levels are known to those of skill in the art. In some embodiments, the patient's serum uric acid levels are assayed before each KXX therapy. In some embodiments, any suitable method for collecting appropriate samples and methods of measuring or quantifying uric acid levels may be used in accordance with the disclosure.
Criteria for Evaluation: Efficacy was assessed by SUA levels, tender and swollen joint counts, patient and physician global assessments of gout, joint pain, and DECT.
Patients were administered oral MTX (15 mg/week) and folate (1 mg/day) 4 weeks prior to the first pegloticase infusion (Day 1) and throughout the pegloticase treatment period. Blood was drawn prior to each infusion to measure sUA level, monitor clinical parameters, and examine for ADA development. All patients followed typical IR prophylaxis protocols (fexofenadine one day before and the morning of each infusion and acetaminophen and IV corticosteroid the morning of each infusion). […] The primary study outcome was the proportion of responders, defined as sUA<6 mg/dL for at least 80% of the time during month 6 (weeks 20, 22, and 24). All analyses were performed on a modified intent-to-treat population, defined as patients who received ≥1 pegloticase infusion.

Setting [4] is: Day 1 - Pre-Infusion (after MTX run-in, before pegloticase).
[5] abbreviates: Week −2 (MTX run-in, before pegloticase).

Turning to `CN(Cc1cnc2nc(N)nc(N)c2n1)c1ccc(C(=O)N[C@@H](CCC(=O)O)C(=O)O)cc1` [Methotrexate], in series [1], the “Infections And Infestations, Incidence Rate” value was 1.8 Events/PY of MTX and the “Infections And Infestations, Total Events” value was 2. Moreover, the “Pain different than normal, %” value in series [2] (Day 1, ITT) is recorded as “(50.0) %”. Further, in series [2] (Day 1, mITT), the “Pain different than normal, %” value was “(50.0) %”. Besides, in series [2] (ITT N = 15), the “Subjects with gout flares, %” value is given as “(33.3) %”. For the same compound, the “Subjects with gout flares, %” value in series [2] (mITT N = 14) is recorded as “(35.7) %”. Also, in series [2] (Week −4, ITT), the “Pain at rest >3 out of 10, %” value is reported as “(50.0) %” and the “Swelling in Joints, %” value is “(50.0) %”. Moreover, in series [3] (setting [4]), the “sUA change from MTX baseline, mean (SD)” value was 0.25 (1.283) mg/dL; the “sUA change from MTX baseline, median” value was -0.25 mg/dL; the “subjects with sUA < 6 mg/dL, %” value is listed as “(7.1%)”. In series [3] (setting [5]), the “sUA change from MTX baseline, mean (SD)” value is given as 0.54 (0.839) mg/dL; the “sUA change from MTX baseline, median” value was found to be 0.50 mg/dL; the “subjects with sUA < 6 mg/dL, %” value was “(7.1%)”.
